# Data as given in the supplement of paper PMC8728848.
# The other results are listed elsewhere or left out.
# How the values were obtained:
# Test in all cases: glycan array binding signal (z-score within array); higher = stronger binding
# Details in all cases: glycan notation: IUPAC condensed, linker removed
# [1] = molecular target: Kdn(a2-3)Gal(b1-3)GlcNAc
# Procedure, shortened: (§1)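 The Consortium for Functional Glycomics database supplied 3228 glycan arrays, of which those lacking an available protein sequence were dropped. The binding signal, a within-array Z-score, was averaged across arrays of the same protein sequence and across linkers. Negative scores can be read as non-binding.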
# [2] = molecular target: Kdn(a2-3)Gal(b1-4)Glc
# Procedure, shortened: as §1
# [3] = molecular target: Kdn(a2-3)Gal(b1-4)GlcNAc
# Procedure, shortened: as §1
# [4] = molecular target: Kdn(a2-3)Gal(b1-4)[Fuc(a1-3)]GlcNAc
# Procedure, shortened: as §1
# [5] = molecular target: Kdn(a2-6)Gal(b1-4)GlcNAc
# Procedure, shortened: as §1
# [6] = molecular target: Man(a1-2)Man(a1-2)Man(a1-3)Man
# Procedure, shortened: as §1
# [7] = molecular target: Man(a1-2)Man(a1-2)Man(a1-6)[Man(a1-3)]Man
# Procedure, shortened: as §1
# [8] = molecular target: Man(a1-2)Man(a1-3)Man
# Procedure, shortened: as §1
# [9] = molecular target: Man(a1-2)Man(a1-3)[Man(a1-2)Man(a1-6)]Man
# Procedure, shortened: as §1
# [10] = molecular target: Man(a1-2)Man(a1-3)[Man(a1-2)Man(a1-6)]Man(a1-6)[Man(a1-2)Man(a1-2)Man(a1-3)]Man
# Procedure, shortened: as §1
# [11] = molecular target: Man(a1-2)Man(a1-3)[Man(a1-2)Man(a1-6)]Man(a1-6)[Man(a1-2)Man(a1-2)Man(a1-3)]Man(b1-4)GlcNAc(b1-4)GlcNAc
# Procedure, shortened: as §1
# [12] = molecular target: Man(a1-2)Man(a1-3)[Man(a1-6)]Man(a1-6)[Man(a1-2)Man(a1-3)]Man(b1-4)GlcNAc(b1-4)GlcNAc
# Procedure, shortened: as §1
# [13] = molecular target: Man(a1-2)Man(a1-6)[Man(a1-3)]Man(a1-6)[Man(a1-2)Man(a1-2)Man(a1-3)]Man
# Procedure, shortened: as §1
# [14] = molecular target: Man(a1-2)Man(a1-6)[Man(a1-3)]Man(a1-6)[Man(a1-2)Man(a1-2)Man(a1-3)]Man(b1-4)GlcNAc(b1-4)GlcNAc
# Procedure, shortened: as §1
# [15] = molecular target: Man(a1-3)[Man(a1-6)]Man
# Procedure, shortened: as §1
# [16] = molecular target: Man(a1-3)[Man(a1-6)]Man(a1-6)[Man(a1-2)Man(a1-3)]Man(b1-4)GlcNAc(b1-4)GlcNAc
# Procedure, shortened: as §1
# [17] = molecular target: Man(a1-3)[Man(a1-6)]Man(a1-6)[Man(a1-3)]Man
# Procedure, shortened: as §1
# [18] = molecular target: Man(a1-3)[Man(a1-6)]Man(a1-6)[Man(a1-3)]Man(b1-4)GlcNAc(b1-4)GlcNAc
# Procedure, shortened: as §1
# [19] = molecular target: Man(a1-3)[Man(a1-6)]Man(b1-4)GlcNAc(b1-4)GlcNAc
# Procedure, shortened: as §1
# [20] = molecular target: Man(a1-3)[Man(a1-6)]Man(b1-4)GlcNAc(b1-4)[Fuc(a1-6)]GlcNAc
# Procedure, shortened: as §1
# [21] = molecular target: Man(a1-6)Man
# Procedure, shortened: as §1
# [22] = molecular target: Man(b1-4)GlcNAc
# Procedure, shortened: as §1
# [23] = molecular target: MurNAc(b1-4)GlcNAc
# Procedure, shortened: as §1
# [24] = molecular target: Neu5Ac(a2-3)Gal
# Procedure, shortened: as §1
# [25] = molecular target: Neu5Ac(a2-3)Gal(b1-3)GalNAc
# Procedure, shortened: as §1
# [26] = molecular target: Neu5Ac(a2-3)Gal(b1-3)GalNAc(b1-3)Gal(a1-4)Gal(b1-4)Glc
# Procedure, shortened: as §1
# [27] = molecular target: Neu5Ac(a2-3)Gal(b1-3)GalNAc(b1-4)Gal(b1-4)Glc
# Procedure, shortened: as §1
# [28] = molecular target: Neu5Ac(a2-3)Gal(b1-3)GalNAc(b1-4)[Neu5Ac(a2-3)]Gal(b1-4)Glc
# Procedure, shortened: as §1
# [29] = molecular target: Neu5Ac(a2-3)Gal(b1-3)GalNAc(b1-4)[Neu5Ac(a2-8)Neu5Ac(a2-3)]Gal(b1-4)Glc
# Procedure, shortened: as §1
# [30] = molecular target: Neu5Ac(a2-3)Gal(b1-3)GalNAc6S
# Procedure, shortened: as §1
# [31] = molecular target: Neu5Ac(a2-3)Gal(b1-3)GlcNAc
# Procedure, shortened: as §1
# [32] = molecular target: Neu5Ac(a2-3)Gal(b1-3)GlcNAc(b1-2)Man
# Procedure, shortened: as §1
# [33] = molecular target: Neu5Ac(a2-3)Gal(b1-3)GlcNAc(b1-2)Man(a1-3)[GlcNAc(b1-4)][Neu5Ac(a2-3)Gal(b1-3)GlcNAc(b1-2)Man(a1-6)]Man(b1-4)GlcNAc(b1-4)GlcNAc
# Procedure, shortened: as §1
# [34] = molecular target: Neu5Ac(a2-3)Gal(b1-3)GlcNAc(b1-2)Man(a1-3)[Neu5Ac(a2-3)Gal(b1-3)GlcNAc(b1-2)Man(a1-6)]Man(b1-4)GlcNAc(b1-4)GlcNAc
# Procedure, shortened: as §1
# [35] = molecular target: Neu5Ac(a2-3)Gal(b1-3)GlcNAc(b1-2)[Neu5Ac(a2-3)Gal(b1-3)GlcNAc(b1-4)]Man(a1-6)[Neu5Ac(a2-3)Gal(b1-3)GlcNAc(b1-2)Man(a1-3)]Man(b1-4)GlcNAc(b1-4)GlcNAc
# Procedure, shortened: as §1
# [36] = molecular target: Neu5Ac(a2-3)Gal(b1-3)GlcNAc(b1-3)Gal(b1-3)GlcNAc
# Procedure, shortened: as §1
# [37] = molecular target: Neu5Ac(a2-3)Gal(b1-3)GlcNAc(b1-3)Gal(b1-4)GlcNAc
# Procedure, shortened: as §1
# [38] = molecular target: Neu5Ac(a2-3)Gal(b1-3)GlcNAc(b1-3)GalNAc
# Procedure, shortened: as §1
binder,measurement,setting,value
DC-ASGPR S+GEE (Homo sapiens) (protein) MTRTYENFQYLENKVKVQGFKNGPLPLQSLLQRLRSGPCHLLLSLGLGLLLLVIICVVGFQNSKFQRDLVTLRTDFSNFTSNTVAEIQALTSQGSSLEETIASLKAEVEGFKQERQAVHSEMLLRVQQLVQDLKKLTCQVATINNNGEEASTEGTCCPVNWVEHQDSCYWFSHSGMSWAEAEKYCQLKNAHLVVINSREEQNFVQKYLGSAYTWMGLSDPEGAWKWVDGTDYATGFQNWKPGQPDDWQGHGLGGGEDCAHFHPDGRWNDDVCQRPYHWVCEAGLGQTSQESH,glycan array binding signal (z-score),[1],-0.257
same,glycan array binding signal (z-score),[2],-0.189
same,glycan array binding signal (z-score),[3],-0.485
same,glycan array binding signal (z-score),[4],-0.345
same,glycan array binding signal (z-score),[5],-0.333
same,glycan array binding signal (z-score),[6],-0.347
same,glycan array binding signal (z-score),[7],-0.355
same,glycan array binding signal (z-score),[8],-0.333
same,glycan array binding signal (z-score),[9],-0.281
same,glycan array binding signal (z-score),[10],-0.307
same,glycan array binding signal (z-score),[11],-0.231
same,glycan array binding signal (z-score),[12],-0.267
same,glycan array binding signal (z-score),[13],-0.327
same,glycan array binding signal (z-score),[14],-0.317
same,glycan array binding signal (z-score),[15],-0.34
same,glycan array binding signal (z-score),[16],-0.252
same,glycan array binding signal (z-score),[17],-0.368
same,glycan array binding signal (z-score),[18],-0.35
same,glycan array binding signal (z-score),[19],-0.021
same,glycan array binding signal (z-score),[20],-0.295
same,glycan array binding signal (z-score),[21],-0.36
same,glycan array binding signal (z-score),[22],-0.339
same,glycan array binding signal (z-score),[23],-0.355
same,glycan array binding signal (z-score),[24],-0.207
same,glycan array binding signal (z-score),[25],-0.249
same,glycan array binding signal (z-score),[26],-0.294
same,glycan array binding signal (z-score),[27],-0.336
same,glycan array binding signal (z-score),[28],-0.329
same,glycan array binding signal (z-score),[29],-0.272
same,glycan array binding signal (z-score),[30],-0.291
same,glycan array binding signal (z-score),[31],-0.319
same,glycan array binding signal (z-score),[32],-0.395
same,glycan array binding signal (z-score),[33],-0.29
same,glycan array binding signal (z-score),[34],-0.375
same,glycan array binding signal (z-score),[35],-0.229
same,glycan array binding signal (z-score),[36],-0.301
same,glycan array binding signal (z-score),[37],-0.349
same,glycan array binding signal (z-score),[38],-0.336
